Laboratory results reported in PubChem BioAssay AID1347073 (National Center for Advancing Translational Sciences (NCATS), 2019).
The whole screen tested about 45,000 compounds, of which about 200 (0.44%) were called active. Roughly 7% stayed inconclusive and do not appear here. The call rests on the fitted dose curve; in most records, active means well fitted activation curve with a large enough effect; inconclusive means small, poorly fitted or top-dose-only effect; inactive means no such curve, though single readings can be large or run the other way. This is one part of the list.

assay: qHTS of TDP-43 Inhibitors: NCGC Sytravon Library Screen; settings: yeast TDP-43 toxicity rescue, BacTiter-Glo growth, 24 h; series mostly up to 46.1 µM; growth rescue (activation): at the top concentration; further: nearly all actives have a fitted effect of over 55% in size; on growth rescue (activation): 0% is about no effect
Method in brief: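 TDP-43-expressing yeast, pregrown in raffinose, seeded at OD600 0.02 in galactose medium with compound for 24 hr at 30 deg C. Growth read by BacTiter-Glo luminescence, so rescue of toxicity appears as activation.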
Potency means the concentration at half of the fitted maximal effect.

Compound	growth rescue (activation)	Potency
O=C(CCC1CCCC1)Nc1cccc(Cc2ccncc2)c1	inactive: 9.44%	
CC(C)CC1=NN(C(=O)c2ccco2)C(O)(C(F)(F)F)C1 (configuration not stated)	inactive: 0.39%	
CN(C)CCNC(=O)CCn1nc(-c2ccc(Cl)cc2)ccc1=O	inactive: 16.1%	
CC(=O)NCCNc1nc(NCc2ccccc2)nc2ccsc12	inactive: 14.2%	
COc1cccc(NC(=S)N(CCN2CCCCC2)Cc2ccco2)c1	inactive: 15.4%	
CSCC(CO)NS(=O)(=O)c1ccc(C)cc1 (configuration not stated)	inactive: 0.56%	
CSc1ccccc1OCc1cc(C(=O)N(C)CC2COCCO2)no1 (configuration not stated)	inactive: 12%	
CCN(CC(=O)NC1CCS(=O)(=O)C1)S(=O)(=O)c1ccc2ccccc2c1 (configuration not stated)	inactive: 3.81%	
O=C(COC(=O)/C=C/c1ccc(Cl)cc1)Nc1ccccc1-c1ccccc1	inactive: 7.18%	
CCCC(=O)N1CCC1(C)C(=O)NS(=O)(=O)c1cccc(Cl)c1 (configuration not stated)	inactive: -1.68%	
COc1ccc(C2=NN(C(=O)CCC(=O)O)C(c3ccc(OC)cc3)C2)cc1 (configuration not stated)	inactive: 11.3%	
O=C(Nc1cccc(NC(=O)c2cccc(Cl)c2)c1)c1cccnc1	inactive: 1.12%	
O=C(CC(=O)NCCc1ccccc1)NCCc1ccccc1	inactive: 17.6%	
O=C1C=C(Nc2cccc3cccnc23)c2ccccc2C1=O	inactive: -4.32%	
COC(=O)Oc1ccc(/C=C/C(=O)OC(C)C)cc1OC(=O)OC		active: 14.1 µM
CCCN(CCC)c1nc2c(C)cccn2c(=O)c1/C=C1/SC(=S)N(Cc2ccco2)C1=O	inactive: 0.403%	
CC(/C=C1\SC(=S)N(CCC(=O)Nc2cccc(C(=O)O)c2)C1=O)=C\c1ccccc1	inactive: 14.7%	
COc1ccc(C2(C)NC(=O)N(CC(=O)NCCC3=CCCCC3)C2=O)cc1OC (configuration not stated)	inactive: -19.4%	
O=Cc1cn(-c2ccccc2)nc1-c1ccccn1	inactive: -36.4%	
Cn1nnnc1SCc1ccc(CSc2nnnn2C)cc1	inactive: 8.21%	
Cc1ccccc1NC(=O)Cc1nc(COC(=O)c2ccc(NC(N)=O)cc2)cs1	inactive: -6.79%	
O=C1NC(=Nc2ccccc2Cl)S/C1=C\c1cccc([N+](=O)[O-])c1O	inactive: -92.3%	

Compound	growth rescue (activation)	Potency
Cc1cccc(C)c1NC(=O)C(NS(=O)(=O)c1cccs1)c1ccccc1 (configuration not stated)	inactive: 13.4%	
CCC(=O)N1CCc2cc(Br)c(S(=O)(=O)CCC(=O)NCCc3ccccc3)cc21	inactive: -0.0509%	
O=C(NNC(=O)c1ccco1)c1ccccc1	inactive: 1.48%	
CN(CC(=O)NCCc1ccc(F)cc1)CC(=O)Nc1ccc(F)c(F)c1F	inactive: 12%	
COc1ccc(Nc2nnc(-c3ccc(C)cc3)c3ccccc23)cc1C(=O)N1CCCCC1	inactive: 11%	
Cc1cc(C(=O)N/N=C/c2ccc(Cl)c([N+](=O)[O-])c2)c(C)n1-c1ccc(F)cc1	inactive: 26.5%	
N#C/C(=C\c1cccs1)C(=O)Nc1ccccn1	inactive: 23%	
O=C1S/C(=C\C=C\c2ccco2)C(=O)N1c1ccccc1	inactive: -14.5%	
Cc1cc(C)n2nc(SCC(=O)N(Cc3ccccc3)C3CCS(=O)(=O)C3)nc2n1 (configuration not stated)	inactive: -9.43%	
Cn1cccc1C(=O)OCC(=O)NNC(=O)c1ccc([N+](=O)[O-])cc1	inactive: 6.09%	
O=S(=O)(NC1CC1)c1ccc(F)c(F)c1	inactive: 10.3%	
Cn1ccsc1=NC(=O)c1ccc(S(C)(=O)=O)cc1	inactive: -8.77%	
CC1CCCC(C)N1/N=C/c1ccc([N+](=O)[O-])cc1 (configuration not stated)	inactive: -13%	
CC(NS(=O)(=O)c1ccc2c(c1)OCCO2)c1ccccc1 (configuration not stated)	inactive: 19.9%	
O=S(=O)(Nc1ccc(Br)cn1)c1ccc2ccccc2c1	inactive: 5.17%	
COc1ccc(Cl)cc1C(Nc1cccnc1)c1ccc2cccnc2c1O (configuration not stated)	inactive: -63.1%	
Cc1ccc(C(=O)Nc2ccc(NC(=O)c3ccc(C)o3)cc2)o1	inactive: 10.8%	
COC(=O)c1ccc(NC(=S)N2CCC(C(N)=O)CC2)cc1	inactive: 11.4%	
Nc1ccc(S(=O)(=O)C(F)(F)F)cc1N	inactive: 15.4%	
Clc1cccc(-c2ccc3nccn3c2)c1Cl	inactive: 3.51%	
CCOc1ccc(NC(=O)c2cccs2)c([N+](=O)[O-])c1	inactive: 27.8%	
CC(C)(C)c1ccc(C(=O)Nc2ccc(S(=O)(=O)Nc3cnc4ccccc4n3)cc2)cc1	inactive: 4.94%	

Compound	growth rescue (activation)	Potency
COc1cccc(C(=O)Nc2ccc(NC(=O)C3CC3)nc2)c1	inactive: 6.23%	
COc1ccc(C2CC(c3cccs3)=NN2C(=O)CSc2nncs2)cc1OC (configuration not stated)	inactive: -1.68%	
Cc1cc2oc(=O)cc(Cn3ncc(Cl)c(Cl)c3=O)c2cc1Cl	inactive: 8.52%	
CCCCOc1ccc(-c2csc(N)n2)cc1[N+](=O)[O-]	inactive: -28.7%	
Cc1ccc(NCc2ccc(O)c3ncccc23)cc1C	inactive: 20.5%	
CC(C)c1ccc2nc(SCC(=O)NCC3CCCO3)c(C#N)cc2c1 (configuration not stated)	inactive: -0.595%	
CC(=O)c1cccc(N(CC(=O)NCCc2ccccc2)C(=O)c2csnn2)c1	inactive: -24.1%	
CCOc1ccccc1NC(=O)c1ccc(S(=O)(=O)N2CCCCC2)cc1	inactive: 9.56%	
S=c1[nH]nc(C2CCCCC2)n1/N=C/c1ccc(Cl)cc1	inactive: -6.28%	
COC(=O)c1cc2oc3ccccc3c2n1Cc1ccc(Cl)cc1	inactive: 15.5%	
COc1ccc(-c2cc(C(=O)OCC(=O)NC3CC3)c3ccccc3n2)cc1OC	inactive: 4.04%	
CCc1ccc(C(C)(O)C(CN2CCOCC2)c2ccccc2)cc1 (configuration not stated)	inactive: 1.95%	
O=C(c1cccc([N+](=O)[O-])c1)N1CC2C3C=CC(C3)C2C1 (configuration not stated)	inactive: 18.1%	
CC(=O)Nc1ccc(NC(=O)COC(=O)c2ccc([N+](=O)[O-])o2)cc1	inactive: -5.76%	
COc1ccc(CNC(=O)C2CCN(C(=O)Cc3ccccc3)CC2)cc1	inactive: 1.55%	
CCOc1ccc(/C=C(/NC(=O)c2ccc(Cl)cc2)C(=O)O)cc1OCC	inactive: -3.48%	
COc1ccc(CN2C(=O)/C(=C/c3ccncc3)SC2=S)cc1	inactive: 7.53%	
COc1ccc(CC(=O)OCC(=O)NC2CCCCC2)cc1OC	inactive: 6.73%	
CCOC(=O)/C(C#N)=C/c1cn(CCC(=O)O)nc1-c1ccc(Cl)cc1	inactive: 30.9%	
O=C(CSc1nnc(-c2ccccc2O)n1Cc1ccccc1)NNC(=O)c1ccccc1O	inactive: -16.6%	
CCN1CCN(c2ncnc3c2cnn3-c2cccc(C)c2)CC1	inactive: 5.47%	
CCOc1cc(C)c(C(C)C)cc1S(=O)(=O)n1cnc(C)c1	inactive: 20.1%	

Compound	growth rescue (activation)	Potency
CCCCNc1nnc(SCC(=O)c2c[nH]c3ccccc23)s1	inactive: -19.1%	
COc1ccc(-c2cc(C3CC3)nc(SCC(=O)c3cccs3)c2C#N)cc1	inactive: 10%	
CN(Cc1ccccc1)C(=O)COC(=O)c1cc(=O)c2ccccc2o1	inactive: 2.01%	
O=C(Nc1ccc(Br)cc1)C1CC(O)CN1C(=O)Oc1ccccc1 (configuration not stated)	inactive: -2.38%	
Cc1ccc2oc(C(=O)N(Cc3sccc3C)C3CCS(=O)(=O)C3)c(C)c2c1 (configuration not stated)	inactive: 18%	
O=C1CN(S(=O)(=O)c2ccc(F)cc2)CCN1	inactive: -6.3%	
O=C1CN(C(=O)COC(=O)CNC(=O)c2ccc(Br)o2)c2ccccc2N1	inactive: 5.28%	
COc1ccc(NC(=O)Cc2nnc(SCC(=O)Nc3ccc(F)cc3)n2C)cc1	inactive: 1.77%	
Cc1ccc(NC(=O)C2C3C=CC4(O3)C2C(=O)N(CCCN2CCCC2)C4C(=O)NC2CCCCC2)cc1Cl (configuration not stated)	inactive: 7.9%	
Cc1ccc(NC(=O)CSc2nnc(-c3n[nH]c4ccccc34)n2-c2ccccc2)c(C)c1	inactive: 19%	
Cc1ccc(NC(=O)CCN2CCN(CCO)CC2)cc1	inactive: -7%	
Cc1ccc(N2CC(C(=O)N3CCC(C(=O)Nc4nncs4)CC3)CC2=O)cc1 (configuration not stated)	inactive: 5.14%	
CN(C)c1ccc(-c2ccnc3c2CC(C)(C(=O)Nc2ccc(Cl)c(C(F)(F)F)c2)O3)cc1 (configuration not stated)	inactive: 2.64%	
Cn1ccnc1Sc1ccc(/C=N/NC(=O)c2ccccc2O)cc1[N+](=O)[O-]	inactive: -20.1%	
CCCN(CCC)C(=O)Cn1c(=O)n(CCCCCC(=O)NCc2ccccc2Cl)c(=O)c2sccc21	inactive: -2.22%	
O=C(NCc1ccon1)c1ccc(OC2CCN(CCc3ccccc3)CC2)cc1	inactive: 11.7%	
COc1ccc(F)cc1S(=O)(=O)N1CCCCC1	inactive: 30.3%	
Cc1oc(-c2ccccc2)cc1C(=O)Nc1cccc(/C=C\C(=O)O)c1	inactive: 10.7%	
COc1ccccc1N1CCN(C(CNS(=O)(=O)c2ccccc2)c2cccnc2)CC1 (configuration not stated)	inactive: 11.6%	
Cc1nc2ccccc2nc1OCc1ccc([N+](=O)[O-])cc1	inactive: -6.12%	
COc1ccc(N2C(=O)Cc3c2nc(N)c(C#N)c3N)cc1	inactive: 21.3%	
O=C(Cn1c(CO)nc2ccccc21)NCCc1ccccc1	inactive: 6.86%	

Compound	growth rescue (activation)	Potency
Cc1ccccc1CN1CCN(C(C)C(=O)NCc2ccccc2)CC1 (configuration not stated)	inactive: -5.63%	
Cc1ccc(-n2ncc3c(SCc4ccccc4)ncnc32)cc1	inactive: 10.9%	
Cc1ccc(S(=O)(=O)N(C)Cc2ccc(C(=O)NN=C3C4CC5CC(C4)CC3C5)cc2)cc1	inactive: 19.8%	
OCCN(CCO)c1nc2ccccc2[nH]1	inactive: 5.07%	
CC(=O)c1cccc(NC(=O)C2Cc3c(-c4ccccc4Oc4ccccc4)ccnc3O2)c1 (configuration not stated)	inactive: 23.5%	
CCOc1ccc(C(C)=O)cc1COC(=O)CCc1cc(OC)c(OC)c(OC)c1	inactive: 16.2%	
Cc1ccc(-c2c[n+](CC(=O)c3cccs3)c3n2CCC3)cc1	inactive: 9.68%	
CCOc1ccc(S(=O)(=O)N2CCCC(C(=O)NCc3ccncc3)C2)cc1Cl (configuration not stated)	inactive: -15.5%	
Cc1ccc(S(=O)(=O)CC(=O)c2cc(C)c(O)c(C)c2)cc1	inactive: 0.902%	
Cc1cc([N+](=O)[O-])cc([N+](=O)[O-])c1NCC(C)C	inactive: 28.9%	
Cc1ccc(S(C)(=O)=O)cc1C(=O)NC(C)C1CC2CCC1C2 (configuration not stated)	inactive: 7.39%	
CCCCn1c(N)c(N(CCC(C)C)C(=O)COC(=O)c2ccc([N+](=O)[O-])s2)c(=O)[nH]c1=O	inactive: 17.6%	
Cc1ccc(-n2nc3ccc(NC(=S)NC(=O)/C=C/c4ccco4)cc3n2)cc1	inactive: 5.3%	
CCOC(=O)C1CCCN(C(=O)c2ccccc2)CC1 (configuration not stated)	inactive: 23.2%	
CC(=O)Nc1sc2c(c1C#N)CCC2	inactive: 11%	
Cc1nn(C)c(C)c1CN(C)C(=O)c1cc2n(n1)C(C(F)(F)F)CC(c1cccs1)N2 (configuration not stated)	inactive: 7.68%	
COc1cc2c(cc1OC)C(C(=O)Nc1cc(OC)c(OC)c(OC)c1)C(c1cccnc1)N(C)C2=O (configuration not stated)	inactive: 11.7%	
CCOc1ccc(C(=O)Nc2ccc3nc(N4CCN(CC)CC4)cc(C)c3c2)cc1	inactive: 3.19%	
COc1ccc(NC(=S)NNC(=O)c2cccnc2)cc1OC	inactive: 2.57%	
